Out of some 94,000 compounds screened, about 4,000 (4.3%) were called active. Inconclusive results, whose numbers are uncertain, are shown with a selection of clear calls. Calls come from the whole dose curve; as a rule, active = well fitted inhibition curve with a large enough effect; inconclusive = small, poorly fitted or top-dose-only effect; inactive = no such curve, though single readings can be large or run the other way. Potencies beside an inconclusive call are fits to weak or partial responses and may not hold up.
Experiment: Cytotoxic Profiling in NIH 3T3 Cell Line of Diverse Libraries Using Quantitative High-Throughput Screening; note: nearly all actives have a fitted effect of over 55% in size
Settings: NIH 3T3 viability, CellTiter-Glo ATP luminescence, 48-72 h; activity change, negative = cytotoxicity: at 96.7 µM (top of the series) unless noted; series mostly up to 96.7 µM
How it was run: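 First NIH 3T3 cells are plated at 400 cells/well; next compound is pinned in; then plates incubate 48 or 72 hr at 37 °C; finally CellTiter-Glo is added and luminescence read after 10 min.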
With `COC(=O)c1ccc(NC(=O)N2CCCC(c3nn[nH]n3)C2)cc1` (stereo not drawn) the “activity change, negative = cytotoxicity” value was inactive: -0.252%.
With `Cc1noc(-c2ccc3c(c2)OCO3)c1C(=O)NCCC(c1ccccc1)c1ccccc1` the Potency was inconclusive: 44.7 µM [inhibitor, partial curve, poor fit].
For `COc1cccc(C(=O)NC2CCN(c3cc(-c4ccccc4)[nH]n3)C2)c1` (stereo not drawn), the Potency was inconclusive: 50.1 µM [inhibitor, single point].
In the case of `COC(=O)c1ccc(NC(=O)Cn2nc3c(cc2=O)CN(C(C)=O)CC3)cc1`, the Potency is reported as inconclusive: 70.8 µM [inhibitor, single point].
With `CC(C)CN1C(=O)c2ccccc2C(C(=O)Nc2nncs2)C12CCCCC2` (stereo not drawn) the “outcome” value was “inactive”.
With `Cc1cc(C)c(CNC(=O)c2nc(-c3cccc(F)c3)cc3c2ccn3C(C)C)c(=O)[nH]1` the Potency was inconclusive: 35.5 µM [inhibitor, full curve, poor fit].
In the case of `O=C1CC(c2ccccc2)N(S(=O)(=O)c2ccc3c(c2)CCC3)CCCCCN1` (stereo not drawn), the “activity change, negative = cytotoxicity” value is reported as inactive: -15.4%.
With `COc1ccc(Nc2cc(-c3ccccc3OC)nc3c(C)noc23)cc1OC` the Potency was active: 20 µM.
With `Cc1ccc(C(=O)NCc2nnc3cc(-c4nc(C5CC5)no4)ccn23)cc1C` the Potency was inconclusive: 44.7 µM [inhibitor, partial curve, poor fit].
With `CCc1noc(-c2cn(C3CCN(C(=O)c4ccc5c(c4)OCO5)C3)nn2)n1` (stereo not drawn) the Potency was inconclusive: 35.5 µM [inhibitor, partial curve, poor fit].
For `O=C(c1cc(-c2cc(Cl)cc(Cl)c2)c2cccn2n1)N1CCN(Cc2ccccc2)CC1`, the Potency was inconclusive: 44.7 µM [inhibitor, partial curve, poor fit].
In the case of `COc1cccc(S(=O)(=O)NCCc2noc(-c3cccnc3)n2)c1`, the Potency is reported as inconclusive: 14.1 µM [inhibitor, full curve, poor fit].
For `COc1ccc(CN2CC3(CCN(S(=O)(=O)c4ccc(F)cc4)CC3)C2=O)cc1`, the “activity change, negative = cytotoxicity” value was inactive: -23%.
In the case of `OC1(c2cnc(CN3CCC3)s2)CCNCC1`, the “activity change, negative = cytotoxicity” value is reported as inactive: -1.53% [at 230 µM].
In the case of `CN(Cc1cccnc1)C(=O)CC(c1ccccc1)c1ccc(Cl)cc1` (stereo not drawn), the Potency is reported as inconclusive: 50.1 µM [inhibitor, partial curve, poor fit].
With `COc1ccc(CCNC(=O)c2ccc3nc(-c4ccccn4)oc3c2)cc1` the “activity change, negative = cytotoxicity” value was inactive: -15.8%.
For `Cc1ccc(-c2noc([C@@H]3C[C@H](NC(=O)Nc4cccc(F)c4)CN3C)n2)cc1`, the Potency was inconclusive: 89.1 µM [inhibitor, partial curve, poor fit].
In the case of `COc1ccc(NC(=O)CCC2CCCN(C(=O)c3ccccc3SC)C2)cc1Cl` (stereo not drawn), the Potency is reported as inconclusive: 35.5 µM [inhibitor, partial curve, poor fit].
In the case of `CN(C)C[C@@H]1CN(S(C)(=O)=O)C[C@H]1NC(=O)c1cccc(F)c1`, the “activity change, negative = cytotoxicity” value is reported as inactive: 1.85%.
For `O=C([C@@H]1C[C@H](F)CN1C(=O)c1ccoc1)N1CCCCC1`, the “activity change, negative = cytotoxicity” value was inactive: 1.38%.
With `CS(=O)(=O)N(Cc1ccccn1)C1CN(C(=O)c2ccoc2)C1` the “activity change, negative = cytotoxicity” value was inactive: -1.76%.
For `CC(=O)N1CCC(C2CCN(S(=O)(=O)c3cccc(Cl)c3)C2)CC1` (stereo not drawn), the Potency was inconclusive: 10 µM [inhibitor, full curve, poor fit].
In the case of `Cc1nn(-c2ccccn2)c(C)c1[C@@H]1C=C[C@@H](NC(=O)C2CCCCC2)C1`, the Potency is reported as inconclusive: 112 µM [inhibitor, partial curve].
With `CC1(CNc2ccccc2)COc2ccc(C(=O)NCCc3ccccn3)cc2N1` (stereo not drawn) the Potency was inconclusive: 100 µM [inhibitor, partial curve].
In the case of `O=C(c1ccc(F)cc1)N1CCCC(c2noc(COc3ccccc3)n2)C1` (stereo not drawn), the Potency is reported as inconclusive: 70.8 µM [inhibitor, single point].
With `CC1Oc2ccc(NC(=O)c3ccc(Cl)c(Cl)c3)cc2CN(Cc2ccccc2F)C1=O` (stereo not drawn) the Potency was inconclusive: 39.8 µM [inhibitor, partial curve, poor fit].
In the case of `COc1cccc(-c2cccc(CN3CCCC3C(=O)NCc3ccc(Cl)cc3)c2)c1` (stereo not drawn), the Potency is reported as active: 39.8 µM.
For `Cn1cc(-c2ccccc2)cc1C(=O)NCc1cccs1`, the Potency was inconclusive: 11.2 µM [inhibitor, full curve, poor fit].
In the case of `COCCOC1CCN(S(=O)(=O)Cc2ccccc2)CC1`, the “outcome” value is reported as “inactive”.
For `Cc1ccc(-c2cc(C(=O)NCCc3ccc(Cl)cc3)c3cnn(C)c3n2)c(C)c1`, the Potency was inconclusive: 70.8 µM [inhibitor, single point].
With `COc1ccc(-c2cccc(C(=O)N3CCC(NC(=O)c4ccc(Cl)nc4)CC3)c2)nn1` the “activity change, negative = cytotoxicity” value was inactive: -9.39%.
With `COCc1cc(CC2(NCc3ccccc3)COC2)no1` the “activity change, negative = cytotoxicity” value was inactive: -12.8% [at 230 µM].
In the case of `O=C1N(Cc2ccc(F)cc2)C[C@H]2CN(Cc3ccc(C(F)(F)F)cc3)CCN12`, the Potency is reported as inconclusive: 44.7 µM [inhibitor, partial curve, poor fit].
In the case of `O=C(C1CCCC1)N1CC2(CCCN2CC2CC2)Cc2ccccc21` (stereo not drawn), the Potency is reported as inconclusive: 79.4 µM [inhibitor, single point].
In the case of `O=C(Cc1ccc(F)cc1)N(CC1CCN(Cc2ccccc2F)CC1)CC1CCCO1` (stereo not drawn), the “activity change, negative = cytotoxicity” value is reported as inactive: -23.1%.
With `C[S+](=O)([O-])N1CCN(C(=O)c2nc3cccnc3n(Cc3ccccc3)c2=O)CC1` the “activity change, negative = cytotoxicity” value was inactive: -17.6%.
With `COc1cccc(C(=O)N2CCC(N3C[C@H](O)C[C@H]3C(=O)NCc3cc(F)ccc3F)CC2)c1` the “activity change, negative = cytotoxicity” value was inactive: -8.74%.
In the case of `O=C(CCCc1ccccc1)N1CCC2(CC1)CC(Cc1nc(-c3cccnc3)no1)CCO2` (stereo not drawn), the Potency is reported as inconclusive: 39.8 µM [inhibitor, partial curve].
In the case of `CSc1ccc(-c2cccc(C(=O)NCC(=O)NCc3ccc(F)cc3)c2)cc1`, the Potency is reported as inconclusive: 50.1 µM [inhibitor, partial curve, poor fit].
With `O=C(Nc1ccc(F)cc1)c1ccc2c(c1)OCCN(c1ccccc1)C2` the Potency was inconclusive: 39.8 µM [inhibitor, partial curve].
For `CC(=O)N1CCC(N2C[C@@H]3OCC(=O)N[C@@H]3C2)CC1`, the Potency was inconclusive: 126 µM [inhibitor, single point].
In the case of `O=C(Cc1ccccc1)N1CCCC2(CN[S+](=O)([O-])c3cccnc3N2)C1` (stereo not drawn), the “activity change, negative = cytotoxicity” value is reported as inactive: 3.01%.
For `CC1=C[C@@H](CNC(=O)CC2(CC(=O)O)CCCC2)[C@H](C(C)C)C[C@H]1Cc1nc2c(C)cccc2[nH]1`, the “activity change, negative = cytotoxicity” value was inactive: -4.68%.
% is set by controls: 0 for no effect and ±100 for the full control effect; potency is the fitted concentration of half-maximal effect; tags give direction and shape of the fitted curve.
